Source: PubChem BioAssay AID686979 (National Center for Advancing Translational Sciences (NCATS), 2013)
Several values for one entry are separate records, joined by “and”; a condition that tells them apart may be missing. Equal values may be shown once. Hit rate of the full screen: of about 420,000 compounds, about 50,000 (12%) were called active. This list was built around the results that the source calls inconclusive (neither active nor inactive); the mix of calls is not that of the screen. Calls follow the shape of the dose curve; as a rule, active = well fitted inhibition curve with a large enough effect; inconclusive = small, poorly fitted or top-dose-only effect; inactive = flat fitted curve, though single readings scatter. A potency beside an inconclusive call is a rough fit, not a confirmed value.

experiment: qHTS for Inhibitors of human tyrosyl-DNA phosphodiesterase 1 (TDP1): qHTS in cells in presence of CPT; conditions: chicken DT40 Tdp1-/-;hTDP1 cells + 20 nM CPT, ATP luminescence, 48 h; series mostly up to 46.2 µM; also: nearly all actives have a fitted effect of over 55% in size
How it was run: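 Cell growth measured by CellTiter-Glo luminescence after a minimum 48 h, 37 C compound exposure with 20 nM CPT in Tdp1-knockout DT40 cells stably expressing hTDP1, seeded 400/well; qHTS titration format.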
Potency is read from the fitted curve at half-maximal effect; tags tell the direction and shape of the fitted curve.

Row | Compound | Potency
1 | COc1ccc(C(Cl)=C(c2ccc(OC)cc2)c2ccc(OC)cc2)cc1 | inconclusive: 29.1 µM [inhibitor, single point]
2 | CC1CCc2cc(F)ccc2N1C(=O)CSc1nnc2c(n1)[nH]c1ccc(F)cc12 (centres undefined) | inconclusive: 29.1 µM [inhibitor, single point]
3 | Cc1cc(NC(=O)c2ccc(F)cc2)ccc1NC(=O)c1ccco1 | inactive
4 | COc1ccc(NC(=O)c2ccc(NC(=O)c3cccs3)cc2)cc1 | inactive
5 | CC1Cc2ccccc2N1CC(=O)NCc1ccc2c(c1)OCO2 (centres undefined) | inactive
6 | O=S(=O)(Nc1ccc(C(O)(C(F)(F)F)C(F)(F)F)cc1)c1cccc2cccnc12 | active: 16.4 µM
7 | O=C(Oc1c(-c2ccccc2Cl)oc2ccccc2c1=O)c1ccc(Cl)cc1 | inconclusive: 29.1 µM [inhibitor, single point]
8 | Cc1oncc1C(=O)Nc1ccc(C(F)(F)F)cc1 | active: 7.31 µM
9 | CCC(C)[C@H](NC(=O)N1CCn2c1nc1ccccc12)C(=O)NCC1CCCO1 (some centres undefined) | inactive
10 | CC(=O)NC1C(OCc2ccccc2)OC2COC(c3ccccc3)OC2C1OCC(=O)O (centres undefined) | inconclusive: 29.1 µM [inhibitor, partial curve, poor fit]
11 | COc1ccccc1C(=O)Nc1c(C(=O)Nc2ccc(C)cc2)oc2ccccc12 | active: 20.6 µM
12 | CC(C)(C)C(=O)OCCNc1nc(-c2ccccc2)nc2ccccc12 | inconclusive: 25.9 µM [inhibitor, single point]
13 | Cc1cccc(Cn2c(NCC(C)O)nc3c2c(=O)n(C)c(=O)n3C)c1 (centres undefined) | active: 11.6 µM
14 | CC(=O)Oc1ccc2c(c1)CC[C@@H]1[C@@H]2CC[C@]2(C)[C@@H](O)CC[C@@H]12 | inconclusive: 33.5 µM [inhibitor, single point]
15 | O=C(Nc1nc(-c2ccc(Cl)s2)cs1)c1ccco1 | inconclusive: 29.1 µM [inhibitor, single point]
16 | COCCOC(=O)c1[nH]c2c(c1C)C(=O)CC(c1cc(OC)c(OC)c(OC)c1)C2 (centres undefined) | active: 3.66 µM
17 | Cn1c(-c2ccccc2)cnc1SCC(=O)N1CCCCC1 | inactive
18 | O=C(CN1CCOCC1)n1c2ccccc2c2ccccc21 | inconclusive: 29.1 µM [inhibitor, single point]
19 | CCN(C(=O)c1cc2c(Cl)nc3ccc(C)cc3c2s1)c1cc(OC)ccc1OC | inconclusive: 29.1 µM [inhibitor, single point]
20 | CCC(=O)Nc1ccc(C)cc1-c1nc2ccccc2n(Cc2ccccc2)c1=O | inactive
21 | Cc1ccc2cc(CN(Cc3cccs3)Cc3nnnn3CC3CCCO3)c(=O)[nH]c2c1 (centres undefined) | inconclusive: 8.2 µM [inhibitor, partial curve]
22 | COC(=O)c1ccc(COc2ccccc2/C=N/NC(=O)c2cccnc2)cc1 | inconclusive: 29.1 µM [inhibitor, single point]

Row | Compound | Potency
23 | CCOC(=O)c1c2c(n(-c3ccc(OC)cc3)c1C)C(=O)C(=O)c1ccccc1-2 | active: 3.26 µM
24 | O=C(NCc1cccnc1)C1CC(c2ccc(Cl)c(Cl)c2)=NO1 (centres undefined) | inconclusive: 25.9 µM [inhibitor, single point]
25 | CCOC(=O)c1cccc(NC(=O)CCc2nc(-c3ccc(C)cc3)no2)c1 | inconclusive: 29.1 µM [inhibitor, single point]
26 | Fc1cccc2sc(Nc3nc4ccccc4s3)nc12 | inconclusive: 18.4 µM [inhibitor, single point]
27 | COc1ccc(NC(=O)C2CCCN2S(=O)(=O)c2ccc3c(c2)CCCC(=O)N3)cc1Cl (centres undefined) | inconclusive: 29.1 µM [inhibitor, single point]
28 | COc1ccc(C(=O)CCN2CCC(C)CC2)cc1 | active: 13 µM
29 | CC(=O)n1cc([C@H]2C=C(C(=O)Nc3ccccc3)O[C@@H](OCCCCO)C2)c2ccccc21 | inconclusive: 29.1 µM [inhibitor, single point]
30 | CCOC(=O)c1c(N)sc2c1CCN(Cc1ccccc1)C2 | inconclusive: 35.5 µM [inhibitor, single point] and inconclusive: 33.5 µM [inhibitor, single point]
31 | C[C@]12c3[nH]c4ccccc4c3CCN1C(=O)C(CC(=O)NCCN1CCOCC1)C[C@@H]2C(=O)N1CCCCC1 (some centres undefined) | inactive
32 | CC(CN1CCOCC1)(NS(=O)(=O)c1ccccc1)c1ccccc1 (centres undefined) | inconclusive: 29.1 µM [inhibitor, single point]
33 | COCC(=O)N(Cc1nc2ccccc2c(=O)[nH]1)Cc1cccs1 | inconclusive: 18.4 µM [inhibitor, single point]
34 | CCC(C)c1ccccc1NC(=O)C(C)N(C)Cc1cccc(OC)c1 (centres undefined) | inconclusive: 23.1 µM [inhibitor, single point]
35 | O=C(CN1CCN(Cc2ccc3c(c2)OCO3)CC1)c1c[nH]c2ccccc12 | inconclusive: 16.4 µM [inhibitor, single point]
36 | O=C(CN1C(=O)NC2(CCCC2)C1=O)N1CCCSC1=Nc1ccccc1 | inactive
37 | Cc1cc(NC(=O)CN2C(=O)CC(c3ccco3)Sc3ccccc32)no1 (centres undefined) | inconclusive: 29.1 µM [inhibitor, single point]
38 | CC(=O)c1cccc(NC(=O)CN2CCc3cc4c(cc3C2)OCCCO4)c1 | inconclusive: 16.4 µM [inhibitor, single point]
39 | COc1ccc(C(=S)N2CCN(c3cccc(Cl)c3)CC2)c(OC)c1 | active: 2.59 µM
40 | COc1ccc(NC(=S)NC(NC(=O)c2cccc3ccccc23)C(Cl)(Cl)Cl)c([N+](=O)[O-])c1 (centres undefined) | inconclusive: 20.6 µM [inhibitor, single point]
41 | O=S(=O)(Nc1nc2ccc(S(=O)(=O)N3CCCC3)cc2s1)c1ccc(F)cc1 | inactive
42 | CCNc1nc(NCC)n2c(SCC(=O)N3CC4(C)CC3CC(C)(C)C4)nnc2n1 (centres undefined) | inconclusive: 32.6 µM [inhibitor, single point]
43 | CCOc1ccc(-c2csc(/C(C#N)=C\c3ccc(O)c([N+](=O)[O-])c3)n2)cc1 | active: 3.66 µM
44 | O=C(CN(Cc1ccccc1)C(=O)CCC(=O)Nc1ccccn1)NCc1ccco1 | inactive
